According to publication PMC3585203:
Like-named read-outs stand apart in the source and are kept apart here. No constants are given. Whether binding was seen depends on the method and setting. For part of these data: Binding seen in cells or lysates may run through a third protein. Some entries that bind do so weakly or less than the wild type. For part of these data: Tags and fused reporters may be left off the sequences shown. Blank lines part the entries; values can stand above or below the molecule they belong to.

Amino acid sequences for entries named in this document (tags omitted). A change or cut given only in a name is not applied to a line headed by its entry. Chains listed by the source or under a name are the forms on record and can include a tag or linker. Residues count along the entry.
Rvs167 241-482 (two-hybrid fusion) (P39743, residues 241-482): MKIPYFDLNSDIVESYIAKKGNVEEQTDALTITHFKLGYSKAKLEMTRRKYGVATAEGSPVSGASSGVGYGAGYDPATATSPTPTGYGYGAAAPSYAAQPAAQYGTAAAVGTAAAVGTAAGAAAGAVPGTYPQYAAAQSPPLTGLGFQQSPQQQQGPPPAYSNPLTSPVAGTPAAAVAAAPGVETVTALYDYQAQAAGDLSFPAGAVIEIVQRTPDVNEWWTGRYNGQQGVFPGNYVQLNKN
SH3 domain of Rvs167 (expressed in E. coli) (P39743, residues 421-482): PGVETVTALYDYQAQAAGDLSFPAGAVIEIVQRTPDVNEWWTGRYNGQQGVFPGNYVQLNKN
Rvs167-P473L (P39743, form named): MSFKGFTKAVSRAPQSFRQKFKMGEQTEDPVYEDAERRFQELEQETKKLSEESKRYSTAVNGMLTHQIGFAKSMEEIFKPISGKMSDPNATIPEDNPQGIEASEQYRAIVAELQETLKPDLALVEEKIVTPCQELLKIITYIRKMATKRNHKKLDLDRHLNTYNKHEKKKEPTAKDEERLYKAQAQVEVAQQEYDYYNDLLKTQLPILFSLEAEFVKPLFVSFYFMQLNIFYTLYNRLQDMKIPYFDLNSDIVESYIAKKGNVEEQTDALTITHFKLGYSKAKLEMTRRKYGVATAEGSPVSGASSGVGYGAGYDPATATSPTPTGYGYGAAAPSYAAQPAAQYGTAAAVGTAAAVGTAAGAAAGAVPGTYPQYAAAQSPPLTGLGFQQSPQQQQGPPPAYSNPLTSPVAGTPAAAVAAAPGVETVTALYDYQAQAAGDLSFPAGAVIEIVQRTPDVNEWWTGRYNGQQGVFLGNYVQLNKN

Key:
[1] = target: T1, Inn1 135-409 (expressed in E. coli) (S. cerevisiae) (UniProt P53901); test: pull-down; fragments expressed individually in E. coli as 3-Streptag or 6His-tag fusions; pairs of cultures mixed; Streptag fusions isolated from the extract on Strep-Tactin Superflow, eluted with d-Desthiobiotin, then bound to Ni-NTA agarose and eluted with 250 mM imidazole; SDS-PAGE, colloidal Coomassie
T1 sequence: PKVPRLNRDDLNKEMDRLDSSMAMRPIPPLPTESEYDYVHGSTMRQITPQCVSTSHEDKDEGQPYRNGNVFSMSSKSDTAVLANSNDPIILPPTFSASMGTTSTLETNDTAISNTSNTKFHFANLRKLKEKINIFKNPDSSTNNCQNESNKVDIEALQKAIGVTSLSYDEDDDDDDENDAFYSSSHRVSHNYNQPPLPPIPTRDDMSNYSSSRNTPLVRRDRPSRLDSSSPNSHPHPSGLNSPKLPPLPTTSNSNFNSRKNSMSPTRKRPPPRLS

[2] = target: T2, Inn1 135-409 (two-hybrid fusion) (S. cerevisiae) (UniProt P53901); test: two-hybrid; vectors pGADT7 and pGBKT7 (Clontech); cells grown 3 days at 30°C on Synthetic Complete medium lacking leucine and tryptophan (non-selective) or also lacking histidine (selective)
T2 sequence: T1 sequence

[3] = target: T3, Inn1 (S. cerevisiae) (UniProt P53901); test: as above
T3 sequence: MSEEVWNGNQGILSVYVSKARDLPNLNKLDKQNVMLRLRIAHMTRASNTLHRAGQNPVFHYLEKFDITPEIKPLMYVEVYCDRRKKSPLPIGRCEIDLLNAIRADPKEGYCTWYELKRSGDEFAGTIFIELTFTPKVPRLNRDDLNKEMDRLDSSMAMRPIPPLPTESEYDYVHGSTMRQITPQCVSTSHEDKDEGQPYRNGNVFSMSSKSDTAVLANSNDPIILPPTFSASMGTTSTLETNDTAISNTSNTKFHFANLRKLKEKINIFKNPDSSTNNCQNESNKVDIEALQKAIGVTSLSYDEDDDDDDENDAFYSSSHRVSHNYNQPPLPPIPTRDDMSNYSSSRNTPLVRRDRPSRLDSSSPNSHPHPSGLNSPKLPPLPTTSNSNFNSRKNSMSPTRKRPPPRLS

[4] = target: T1, Inn1 135-409 (expressed in E. coli) (S. cerevisiae); test: pull-down; fragments expressed individually in E. coli as 3-Streptag or 6His-tag fusions; pairs of cultures mixed; Streptag fusions isolated from the extract on Strep-Tactin Superflow, eluted with d-Desthiobiotin, then bound to Ni-NTA agarose and eluted with 250 mM imidazole; SDS-PAGE, colloidal Coomassie; remark: listed apart in the source
[5] = target: T3, Inn1 (S. cerevisiae); test: two-hybrid; vectors pGADT7 and pGBKT7 (Clontech); cells grown 3 days at 30°C on Synthetic Complete medium lacking leucine and tryptophan (non-selective) or also lacking histidine (selective); remark: listed apart in the source

binding [1]: binds
Molecule: Rvs167 241-482 (expressed in E. coli) (from UniProt P39743 241-482) (domain or fragment)

binding [3]: binds
Molecule: Rvs167 (from UniProt P39743 1-482)

binding [4]: binds
B1: SH3 domain of Cyk3 (expressed in E. coli) (domain or fragment, UniProt Q07533 9-70)
chain: KPPFKVKARYGWSGQTKGDLGFLEGDIMEVTRIAGSWFYGKLLRNKKCSGYFPHNFVILLEE

binding [5]: no binding
B2: Lsb3 (protein, UniProt P43603 1-459)
chain: MGINNPIPRSLKSETKKAAKILASFVKPNQVFGADQVIPPDVLKRAKGLAIITILKAGFLFSGRAGSGVIVARLKDGTWSAPSAIAMAGAGAGGMVGIELTDFVFILNTQDAVKSFSEFGTITLGGNVSVSAGPLGRSAEAAASASAGGVAAVFAYSKSKGLFAGVSVEGSAIIERREANRKFYGDNCTAKMILSGRIRPPPAVDPLFRVLESRAFNYRPSNGGRGSFDDDEDDYYDDDDYYNDIPSSFSSTDASSTRPNTRSTRRRAQSGSRYTFDDDDDDDDYGTGYSRNSRLAPTNSGGSGGKLDDPSGASSYYASHRRSGTAQSRARSSRNRWADDEYDDYDDDYESGYRRGNGRDRTKDREVDDLSNRFSKSRISSASTPQTSQGRFTAPTSPSTSSPKAVALYSFAGEESGDLPFRKGDVITILKKSDSQNDWWTGRVNGREGIFPANYVELV

binding [5]: no binding
B3: Abp1 (protein, UniProt P15891 1-592)
chain: MALEPIDYTTHSREIDAEYLKIVRGSDPDTTWLIISPNAKKEYEPESTGSSFHDFLQLFDETKVQYGLARVSPPGSDVEKIIIIGWCPDSAPLKTRASFAANFAAVANNLFKGYHVQVTARDEDDLDENELLMKISNAAGARYSIQTSSKQQGKASTPPVKKSFTPSKSPAPVSKKEPVKTPSPAPAAKISSRVNDNNDDDDWNEPELKERDFDQAPLKPNQSSYKPIGKIDLQKVIAEEKAKEDPRLVQKPTAAGSKIDPSSDIANLKNESKLKRDSEFNSFLGTTKPPSMTESSLKNDDDKVIKGFRNEKSPAQLWAERKAKQNSGNAETKAEAPKPEVPEDEPEGEPDVKDLKSKFEGLAASEKEEEEMENKFAPPPKKSEPTIISPKPFSKPQEPVKAEEAEQPKTDYKKIGNPLPGMHIEADNEEEPEENDDDWDDDEDEAAQPPLPSRNVASGAPVQKEEPEQEEIAPSLPSRNSIPAPKQEEAPEQAPEEEIEEEAEEAAPQLPSRSSAAPPPPPRRATPEKKPKENPWATAEYDYDAAEDNELTFVENDKIINIEFVDDDWWLGELEKDGSKGLFPSNYVSLGN

The next lines start with the molecule.

Molecule: Rvs167 241-482 (two-hybrid fusion) (from UniProt P39743 241-482) (domain or fragment)
binding [2]: binds

Molecule: Rvs167-P473L (from UniProt P39743 1-482)
binding [3]: no binding

Molecule: SH3 domain of Rvs167 (expressed in E. coli) (from UniProt P39743 421-482) (domain or fragment)
binding [1]: no binding

B4: SH3 domain of Hof1 (expressed in E. coli) (domain or fragment, UniProt Q05080 599-667)
chain: PVIEYAKAMYPLIGNEAPGLANFHKGDYLLITEIVNKDWYKGEVYDNDRIDRNHRIGLIPYNFIQLLHQ
binding [4]: binds
